Blank lines part the entries; values can stand above or below the compound they belong to.
What was measured:
Mouse plasma stability = assay type: in vitro ADME; conditions: C57BL6, mouse
TRPV1 = conditions: Ca2+ influx assay; cited from earlier work
[1] = cited from earlier work
[2] = tested on: primary mouse dorsal root ganglion (DRG) neurons (TRPV1-sensitive); assay: Ca2+ imaging in primary mouse dorsal root ganglion; assay type: cell-based
[3] = tested on: male and female C57BL/6 mice; assay: Hotplate thermal assay after systemic s.c. injection; conditions: 2 mg/kg s.c., 2 h before 49 °C hotplate, male mice only; P = 0.0072
CD-1 female mice = conditions: 6 mg/kg s.c.; cited from earlier work
[4] = tested on: male and female C57BL/6 mice (eye); assay: Rodent eye wiping pungency assay; assay type: in vivo, mouse; conditions: relative pain-producing potency with capsaicin set to 100
mice = conditions: s.c. administration in mice; cited from earlier work
Aqueous solubility = assay type: physicochemical; conditions: YB-2 tested as a HCl salt

remaining at 120 min (Mouse plasma stability): 20%
SMILES: CC(C)[N+](C)(CCOC(=O)C1c2ccccc2Oc2ccccc21)C(C)C [propantheline]

SMILES: COc1cc(CN(C)C(=O)CCCCC=CC(C)C)ccc1O [3d]
EC50 (TRPV1): > 100 µM

remaining at 120 min (Mouse plasma stability): 0.2%
SMILES: CC[C@H](C)C(=O)O[C@H]1C[C@@H](C)C=C2C=C[C@H](C)[C@H](CC[C@@H]3C[C@@H](O)CC(=O)O3)[C@H]21 [lovastatin]

SMILES: COc1cc(CNC(=O)CCCCC=CC(C)C)ccc1O [capsaicin, 8-methyl-N-vanillyl-6-nonenamide]
aqueous solubility [1]: 0.0013 g/100 mL
mean peak fluorescence ([2]; 0.5 μM, initial experiment (data not shown)): 4.00 ± 0.38
TRPV1-sensitive neurons showing desensitization ([2]; first application 0.5 μM compound, then 0.5 μM capsaicin about 7.5 min later): 96%
maximum possible effect (%MPE) vs vehicle [3]: significantly higher than that of the vehicle control
latency in the hotplate assay (CD-1 female mice): increased latency in the hotplate assay
Pungency (RPP) [4]: 100
LD50 (mice): 9 mg/kg
solubility (Aqueous solubility): 0.0013 g/l00 mL

— publication PMC8793056 (ACS Omega, 2022)
